# Assay results as given in PubChem BioAssay AID588855 (National Center for Advancing Translational Sciences (NCATS), 2011).
# “And” between values parts separate entries of the source, which are not always exact repeats. Equal entries are not always repeated. Screen size: about 410,000 compounds; about 5,000 (1.2%) were called active. The shares of active, inactive and inconclusive entries below differ from those in the screen. Calls come from the whole dose curve; as a rule, active = well fitted inhibition curve with a large enough effect; inconclusive = small, poorly fitted or top-dose-only effect; inactive = no such curve, though single readings can be large or run the other way. Potencies beside an inconclusive call are fits to weak or partial responses and may not hold up.
# Experiment: qHTS for Inhibitors of TGF-b; note: nearly all actives have a fitted effect of over 65% in size
# Conditions: HepG2 CAGA-GFP TGF-b/SMAD3 reporter, GFP fluorescence, 18 h, TGF-beta stimulated, 500 pg/mL final; series mostly up to 46.1 µM; activity, negative = inhibition: at the top concentration
# How it was run: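 Per well, imaged GFP fluorescence of HEPG2 CAGA-GFP cells gives the signal; cells get compound, then TGF-beta (500 pg/mL final), 18 h at 37 degrees C; %Activity versus -TGF-beta and +DMSO controls.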
# % is set by controls: 0 for no effect and ±100 for the full control effect; potency is the fitted concentration of half-maximal effect; tags give direction and shape of the fitted curve.
SMILES,"activity, negative = inhibition",Potency
COc1ccc2nc(NC(=O)C3CCN(S(=O)(=O)c4cnc[nH]4)CC3)sc2c1,inactive: 2.15%,
Cc1cccc(C)c1OCC(=O)Nc1ccc2c(c1)OCCO2,inactive: 5.84%,
COc1ccc(Cl)cc1C(=O)OCC(=O)N(CC(C)C)c1c(N)n(Cc2ccccc2)c(=O)[nH]c1=O,,"inconclusive: 35.5 µM [inhibitor, single point]"
Cc1cc(C(=O)Nc2sc(C)c(-c3ccc(F)cc3)c2C(N)=O)no1,,"inconclusive: 17.8 µM [inhibitor, single point]"
O=C(NN=C1CCC(c2ccccc2)CC1)c1ccccc1-n1cccc1 (stereo unspecified),,"inconclusive: 5.62 µM [inhibitor, single point]"
CC1CC(C)CN(Cc2nc(N)nc(Nc3ccc4ccccc4c3)n2)C1 (stereo unspecified),,"inconclusive: 2.51 µM [inhibitor, partial curve, poor fit]"
COc1ccccc1N1CCN(S(=O)(=O)c2ccc3c(c2)CCCN3C(C)=O)CC1,,"inconclusive: 17.8 µM [inhibitor, single point]"
CC1C(=O)N(Cc2cn(Cc3ccco3)nn2)CCS(=O)(=O)N1Cc1ccc(-c2ccccc2)cc1 (stereo unspecified),,"inconclusive: 20 µM [inhibitor, single point]"
Cc1ccc(C(=O)Nc2ccc3nccnc3c2)cc1,,"inconclusive: 0.891 µM [inhibitor, full curve, poor fit]"
CCN(C(=O)CSc1nnc(-c2ccncc2)n1Cc1ccccc1)C1CCS(=O)(=O)C1 (stereo unspecified),inactive: -3.27%,
CC(C)c1ccc(-c2cc(C(=O)NN3CCN(C)CC3)c3ccccc3n2)cc1,inactive: -14.1%,
COc1ccccc1C1c2[nH]c3ccccc3c2CCN1Cc1ccc(NC(C)=O)s1 (stereo unspecified),,"inconclusive: 35.5 µM [inhibitor, single point]"
O=C(Cn1cnc2c(nnn2Cc2ccc(F)cc2)c1=O)NCC1CCCO1 (stereo unspecified),inactive: -0.0457%,
COc1ccc(Nc2ncc(C(=O)Nc3ccc(F)cc3F)c3ccccc23)cc1,,active: 12.6 µM
O=C(CN(Cc1ccccc1)C(=O)CNS(=O)(=O)c1ccc(Cl)cc1)NCC1CCCO1 (stereo unspecified),,"inconclusive: 2 µM [inhibitor, full curve]"
O=C(CC1NCCNC1=O)Nc1ccc(F)c(Cl)c1 (stereo unspecified),,"inconclusive: 3.98 µM [inhibitor, full curve, poor fit]"
Cc1nn(-c2ccccc2)c(C)c1/C=N/NC(=O)c1ccccc1NS(=O)(=O)c1cccs1,,"inconclusive: 20 µM [inhibitor, single point]"
COc1cccc(/C=N\NC(C)=O)c1OC/C=C/c1ccccc1,,"inconclusive: 35.5 µM [inhibitor, single point]"
C/C=C(/C)C(=O)O[C@@H]1c2c(ccc3ccc(=O)oc23)O[C@@H]1C(C)(C)OC(=O)/C(C)=C\C,,"inconclusive: 35.5 µM [inhibitor, single point]"
Cc1cc(NC(=O)c2oc3c(c2C)-c2[nH]ncc2CC3)ccc1Br,,"inconclusive: 11.2 µM [inhibitor, partial curve, poor fit]"
COc1ccc(C2CC(O)(c3ccccc3)Oc3c(C)ccc(C)c32)cc1 (stereo unspecified),,"inconclusive: 22.4 µM [inhibitor, partial curve, poor fit] and inconclusive: 14.1 µM [inhibitor, single point]"

SMILES,"activity, negative = inhibition",Potency
CSc1ccc(CCNC(=O)c2c(C)nn(-c3ccc(F)cc3)c2-n2cccc2)cc1,,"inconclusive: 35.5 µM [inhibitor, single point]"
CCOC(=O)C1CCCN(Cc2ccc(O)c(OC)c2)C1 (stereo unspecified),inactive: -13.6%,
CCn1cc(CN2CCCC(C(=O)Nc3cccc(-c4cc5ccccc5[nH]4)c3)C2)c(C)n1 (stereo unspecified),,"inconclusive: 35.5 µM [inhibitor, single point]"
Cc1ccc(CSc2nc3ccc(NC(=O)CC(C)C)cc3s2)cc1,inactive: -12.9%,
COc1cc2c(cc1OC)C(=O)C(Br)CC2 (stereo unspecified),,"inconclusive: 35.5 µM [inhibitor, single point]"
CC(=O)Nc1ccc2c(c1)CN(c1cc(C)ccc1C)CO2,,"inconclusive: 2.82 µM [inhibitor, full curve, poor fit]"
c1ccc(OCc2nnnn2-c2ccccc2)cc1,,"inconclusive: 0.562 µM [inhibitor, partial curve, poor fit]"
COc1ccc(/C=N/NC(=O)c2ccc(CN3C(=O)c4cccc5cccc3c45)cc2)cc1O,,"inconclusive: 12.6 µM [inhibitor, single point]"
OC(CCCC(O)c1ccccc1)c1ccccc1 (stereo unspecified),inactive: -1.69%,
CN(C)C(=O)c1cccc(-c2cnc3c(NC=O)cc(-c4ccc(F)cc4)cn23)c1,,"inconclusive: 10 µM [inhibitor, partial curve, poor fit]"
Cc1cccn2c(=O)cc(CSc3nnc(NC(=O)C(C)C)s3)nc12,,"inconclusive: 5.62 µM [inhibitor, single point]"
Cc1ccc(NC(=O)c2ccc(CN3CCc4ccccc4C3)cc2)cc1,,"inconclusive: 1.12 µM [inhibitor, full curve, poor fit]"
Cc1cnc([N+](=O)[O-])n1CCOC(=O)NC(=O)c1ccccc1,,"inconclusive: 12.6 µM [inhibitor, partial curve, poor fit]"
NC(COCc1ccccc1)c1csc(NC(=O)Nc2cccc(Cl)c2)n1 (stereo unspecified),,"inconclusive: 31.6 µM [inhibitor, single point]"
Cc1ccc(NC(=O)CN(C)C(=O)COc2ccc(C(=O)c3ccc(F)cc3)cc2)cc1,,"inconclusive: 17.8 µM [inhibitor, single point]"
Cn1c(SCC(=O)N/N=C/c2ccco2)nc2ccccc21,,"inconclusive: 17.8 µM [inhibitor, single point]"
CCC(C)(C)NC(=O)C(c1ccc(OC)cc1)N(Cc1ccc(OC)cc1)C(=O)CCC(=O)Nc1cc(C)on1 (stereo unspecified),inactive: -5.37%,
O=C(Nc1ccc([N+](=O)[O-])cc1)c1cccc([N+](=O)[O-])c1,inactive: 7.79%,
N=c1c2c(n(Cc3ccc(Br)cc3)c3c1CCC3)CCCC2,,"inconclusive: 35.5 µM [inhibitor, single point]"
CCCCC(=O)N/N=C/c1ccc(Sc2cccc3cccnc23)o1,,"inconclusive: 14.1 µM [inhibitor, single point]"
